This is one part of the list.
tested on: PF3D7_0420300 AP2 domain 1 (GST-tagged); test: gcPBM binding intensity (ln(normalized median fluorescence intensity)); higher = stronger DNA binding
In short: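 After 1 h on an Agilent 4 × 180k array of primer-extended double-stranded 36-bp intergenic genomic probes and negative controls, bound GST-tagged P. falciparum DNA-binding domains were detected with Alexa488 anti-GST antibody and scanned at 488 nm. The domains had been expressed in E. coli, and binding took place in 1× PBS with 1% milk, 0.2 mg/ml BSA, 0.5% salmon testes DNA and 0.03% Triton X-100. Binding intensity is the highest Masliner-normalised natural-log median intensity across replicate spots of either probe orientation.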

Sequence | gcPBM binding intensity (ln)
AAAAGAATTTAGAAGGCATGCACTTAAACATGGATA [TGCATGCA_site699] | 9.32
TAAATATTTTATTGTACACACTTTTTATGAATGATG [CACACA_site5694] | 9.36
AATATTTAAAACAAATCACACATGTATCCATAAATG [CACACA_site5308] | 9.37
ATATCCCATATGTAATGTACTTACACTTTCTTAATT [XGTACX_site7020] | 9.5
ATAATTTATATTCAGAAACACACGAAAAAAAAAAAT [CACACA_site1296] | 9.64
AACTAAACAAAAGTTACACACATCATACGATATTAT [CACACA_site3180] | 9.49
ACCATATAATTTTTTTGTACATAATGATTTTTTTTT [XGTACX_site1104] | 9.46
TATATTATATACGTCTGTACACAAATGAGAGGTAAA [XGTACX_site5538] | 9.25
ATGTTAAGAATAATTAGTACTTACATATGTATAATA [XGTACX_site4419] | 9.13
TTATAAAAAAAAAAAAAAAATATATATATATATATA [XGTACX_negctrl_site592] | 8.78
AATAATATATATTGTACACACAAAATGGGAAAAAAA [CACACA_site5100] | 9.73
AAAAAATAATAATAAAATGAATAGATATGTATTTAT [TGCATGCA_negctrl_site210] | 9.37
AACATATTATCTTGTGAAAATAATATAAGTCACATT [TGCATGCA_negctrl_site339] | 9.25
AGCAGAGTTACAATTTGTACGTAATTGATATAGATA [XGTACX_site4051] | 9.07
ATATATATATATATTTGTACAGAAAATATTTTAATA [XGTACX_site3706] | 9.15
ACAAAATGTAAATAAACACACATATATATATATATA [CACACA_site1281] | 9.3
AAGAAAAACTTTACGTGTACCAAACATCCTGCCGAC [XGTACX_site4895] | 9.59
TAAACCTTAAAATATTTCTCATGTTTAACTTATATT [GTGCAC_negctrl_site233] | 9.32
AAAAAATAATTGAAGTGTACGTACAATGATTTTACT [XGTACX_site7663] | 9.35
GTATTCTACAGACACATACACACATATATATATATA [CACACA_site3427] | 9.7
TTATAATATTGTGGTATACACACCTTACAAAAAGGT [CACACA_site2878] | 9.32
GGGAGAAATTTATACATACACACATATATATATTAT [CACACA_site4039] | 9.62
TGTTCTGAACGGTTCATGCACTTTTTTTTGTTAATT | 9.43
CTGTTTTTGTTTTAAAGTACATTGTTCAATATACAT [XGTACX_site5288] | 9.38
TTTATTTTCATATGAACACACATATATATATTATAA [CACACA_site2369] | 9.26
TTATATACCCTAATATGTTTTATTATTATTATATAT [TGCATGCA_negctrl_site6] | 9.53
TATATTCTACAAGAATTATGAATTGTCAGACCAAAT [CACACA_negctrl_site1101] | 8.98

Sequence | gcPBM binding intensity (ln)
TACAATGTGGATAATTGTACAAAACCGATAAGAGGG [XGTACX_site6453] | 9.54
ATATAAATAATATAAATACACACTAAAAAAAATATA [CACACA_site542] | 9.69
ATATTTACCATTGTATGTACATATATAAAATATATC [XGTACX_site3237] | 9.27
GTATATATATATATATGTACATATTTAGAGTTCTGT [XGTACX_site5357] | 9.29
AACATATACACGAACACACACACATATATATATATA [CACACA_site502] | 10.1
AAAACAAATGAGTACACACACATAAAAATTGAAAAT [CACACA_site199] | 10
TAAAGAAAAAAATGTTGTACTTTATGAAACATATTT [XGTACX_site412] | 9.07
AGTTTTTATTAAAACAAAATTTAATTATAACGTTGA [XGTACX_negctrl_site298] | 8.83
CGTAGCCCCACTAACACACACAAATATACTCAATCA [CACACA_site5587] | 9.6
TATATATATATATACACACATACATATATATATTTG [CACACA_site857] | 9.44
TTATATGTATGAACAAGTACATGCTATAATTATAAA [XGTACX_site1399] | 9.03
ATATATATATATATATGTACATATATACATATATGT [XGTACX_site1521] | 9.11
TTTTTTTTTTTTTGATGTACAATAATTAAAGAGTAA [XGTACX_site8403] | 8.8
AGTAGTCTGGAGAAGAGTACATAGTTTCTGGTAGCT [XGTACX_site2023] | 9.2
AATAACTATATATGTGTGCACAAAAATTTGACATAA | 9.62
TGCTTATCCATTTCTACACACAAAAAAAAAAAAAAA [CACACA_site37] | 9.24
TTATATTATAACAAACGTACGAATTTTATACAAATA [XGTACX_site7258] | 9.2
AAATGGGTTTATTTAACACACAAAAGAAAAAATATA [CACACA_site1938] | 9.53
TATATATATTTATGTTGTACAAAATATTATTACGTA [XGTACX_site5384] | 9.04
TATTTTTACAATGGTAGTACCATTTTGAATCTTTGT [XGTACX_site6092] | 9.18
CACCCGCACGTATTTGCACACATTGCCACGTAATTA [CACACA_site5786] | 9.71
ACACTATCTTAGATTTGTACATATTTATATATGTAT [XGTACX_site8739] | 9.42
TCGGTATCTGTTCAAAGTACACATTTGTATACAAAA [XGTACX_site1890] | 9.26
TATATAACATATGGGACACACATGCAACTGTTATAT [CACACA_site3792] | 9.61
AAAAATATTATGATGTTTATTAGAAAGGAAAAAACT [CACACA_negctrl_site1417] | 9.24
ATGTGATGTTATATATGTACTTATTTTTTAATAAGG [XGTACX_site1786] | 9.25

Reference: the supplement of paper PMC11417369
